Results: PMC4336329 (PLoS ONE, 2015)
In all, about 310,000 compounds went through this assay and about 14,000 (4.5%) showed an effect of 50% or more. Effects have a minus sign here. The list shows a part of the results.

Target: human ether-à-go-go-related gene (hERG) potassium channel (human, UniProt Q12809)
Test: primary screen, population patch clamp on CHO cells stably expressing hERG
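Also: peak tail current of the secondary pulse compared with the same well before compound.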

Sequence of human ether-à-go-go-related gene (hERG) potassium channel (Q12809 whole entry, looked up): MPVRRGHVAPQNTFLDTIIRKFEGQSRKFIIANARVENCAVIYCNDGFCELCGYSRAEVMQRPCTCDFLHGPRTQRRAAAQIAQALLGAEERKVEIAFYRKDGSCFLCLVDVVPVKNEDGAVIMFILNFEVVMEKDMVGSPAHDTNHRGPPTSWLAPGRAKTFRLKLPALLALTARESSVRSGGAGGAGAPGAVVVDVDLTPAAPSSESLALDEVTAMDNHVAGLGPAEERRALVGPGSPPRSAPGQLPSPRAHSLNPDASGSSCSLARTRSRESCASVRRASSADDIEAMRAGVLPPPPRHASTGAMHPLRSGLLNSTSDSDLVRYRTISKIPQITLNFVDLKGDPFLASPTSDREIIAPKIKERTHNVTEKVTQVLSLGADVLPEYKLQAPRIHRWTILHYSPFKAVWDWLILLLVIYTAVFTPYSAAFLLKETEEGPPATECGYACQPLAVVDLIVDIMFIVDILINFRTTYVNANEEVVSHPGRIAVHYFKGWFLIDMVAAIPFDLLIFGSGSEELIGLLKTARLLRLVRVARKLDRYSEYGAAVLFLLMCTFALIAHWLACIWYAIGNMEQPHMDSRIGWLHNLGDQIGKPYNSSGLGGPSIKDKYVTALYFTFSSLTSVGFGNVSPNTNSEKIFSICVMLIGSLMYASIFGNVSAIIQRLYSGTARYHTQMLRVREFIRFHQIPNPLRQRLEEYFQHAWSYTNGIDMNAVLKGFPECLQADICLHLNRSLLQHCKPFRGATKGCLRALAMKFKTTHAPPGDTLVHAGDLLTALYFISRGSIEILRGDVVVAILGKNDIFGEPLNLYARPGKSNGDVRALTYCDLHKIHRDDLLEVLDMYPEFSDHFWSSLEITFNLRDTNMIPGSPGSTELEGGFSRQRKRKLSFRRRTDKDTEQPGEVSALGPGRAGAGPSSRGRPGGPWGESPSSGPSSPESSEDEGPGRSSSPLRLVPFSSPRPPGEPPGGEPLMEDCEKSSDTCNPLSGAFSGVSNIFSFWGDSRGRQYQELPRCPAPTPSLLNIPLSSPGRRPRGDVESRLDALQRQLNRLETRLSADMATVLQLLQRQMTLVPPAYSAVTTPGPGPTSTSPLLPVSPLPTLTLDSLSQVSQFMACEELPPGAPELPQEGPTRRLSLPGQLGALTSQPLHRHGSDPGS

Compared with `COc1cccc(C(=O)CC(C(=O)O)c2ccc(F)cc2)c1` (stereo not shown), `COc1cccc(CNC(=O)CCCC(=O)Nc2cccc([N+](=O)[O-])c2)c1` is lower in “hERG current change (%, negative = inhibition) at 10uM” value: 24.4% for the first, -26.1% for the second.

Going from `CN(C)c1nc(N(C)C)nc(N(C#N)CCCl)n1` to `CCOC(=O)CNc1nc(C#N)nc(N2CCOCC2)n1`, the “hERG current change (%, negative = inhibition) at 10uM” value falls from 8.89% to 1.53%.

First: CCN(CC)CCn1c(SCC(=O)NCc2ccccc2)nc2c(sc3ccccc32)c1=O
Second: CCN(CC)CCN1C(=O)C2C3c4ccccc4C(c4ccccc43)C2C1=O (stereo not shown)
The “hERG current change (%, negative = inhibition) at 10uM” value of the first is lower: -29.3% for the first, -2.51% for the second.

First: CC(C)CC(=O)Nc1cccc(-c2cn3ccsc3n2)c1
Second: CC(=O)c1cccc(NC(=O)CSc2nnc(-c3cccnc3)o2)c1
The “hERG current change (%, negative = inhibition) at 10uM” value of the first is higher: 0.856% for the first, -38.3% for the second.

First: O=C(c1ccccc1F)n1c2c(c3ccccc31)CCCC2
Second: Cc1ccccc1N1CCN(S(=O)(=O)Cc2ccccc2)CC1
The “hERG current change (%, negative = inhibition) at 10uM” value of the first is higher: 11.7% for the first, 8.57% for the second.

First: CCN(C(=O)CSc1nnc(-c2ccccc2)o1)c1c(N)n(Cc2ccccc2)c(=O)[nH]c1=O
Second: CCCN(C(=O)COC(=O)C12CCC(=O)N1c1ccccc1S2)c1c(N)n(Cc2ccccc2)c(=O)[nH]c1=O (stereo not shown)
The “hERG current change (%, negative = inhibition) at 10uM” value of the first is lower: -4.39% for the first, 13.3% for the second.

First: NC(=O)CC(NC(=O)c1ccccc1)c1ccc(NCCN2CCCCC2)c([N+](=O)[O-])c1 (stereo not shown)
Second: O=C(NCC1(N2CCOCC2)CCCCC1)c1cccc(S(=O)(=O)N2CCc3ccccc3C2)c1
The “hERG current change (%, negative = inhibition) at 10uM” value of the first is higher: 2.24% for the first, 0.101% for the second.

Compared with `CN(C)S(=O)(=O)c1ccc(-c2cn3ccccc3n2)cc1`, `COc1ccc(S(=O)(=O)n2ccc(-c3ccc4c(c3)CCC(C)(C)O4)n2)cc1` is lower in “hERG current change (%, negative = inhibition) at 10uM” value: 10.6% for the first, -1.94% for the second.

First: COc1ccc(NC(=O)CSCCc2ccccn2)cc1OC
Second: COc1cc(/C=N/NC(=O)c2ccncc2)ccc1OC(C)=O
The “hERG current change (%, negative = inhibition) at 10uM” value of the first is higher: 30.8% for the first, 4.72% for the second.

Compared with `CC(=O)OCC(=O)Nc1ccc(N=Nc2ccccc2)cc1`, `COC(=O)c1ccc(Nc2cc(C)nc(-c3ccccc3O)n2)cc1` is higher in “hERG current change (%, negative = inhibition) at 10uM” value: 4.95% for the first, 19.4% for the second.

Going from `Cc1n[nH]c(C)c1N=Nc1cc(Cl)ccc1Cl` to `CC(C)(C)OC(=O)NCCc1nnc(S(=O)(=O)Cc2ccc(Cl)cc2Cl)o1`, the “hERG current change (%, negative = inhibition) at 10uM” value falls from 11.9% to -5.97%.

Going from `Cn1c(SCC(=O)NC2CCCCC2)nnc1-c1cc2cc(Cl)ccc2o1` to `COc1nnc(-c2ccc(N3CCCCC3)c(NC(=O)C3CCCCC3)c2)c2ccccc12`, the “hERG current change (%, negative = inhibition) at 10uM” value falls from 2.01% to -3.9%.

First: CC1C2(C)OCC(C#N)(C(=N)O2)C1(C#N)C#N (stereo not shown)
Second: CN(C)c1ccc(CNCCC2CCOC(C)(C)C2)cc1.Cl (stereo not shown)
The “hERG current change (%, negative = inhibition) at 10uM” value of the first is higher: 21% for the first, 9.65% for the second.

Going from `COc1ccc(CNc2ccc(S(N)(=O)=O)cc2)cc1` to `C=CCc1cccc(CNc2ccc(S(=O)(=O)Nc3nccnc3OC)cc2)c1O`, the “hERG current change (%, negative = inhibition) at 10uM” value rises from -52.6% to -9.98%.

Compared with `Cc1ccc(S(=O)(=O)N2CCOCC2)cc1C(=O)N1CCOCC1`, `CN1CCN(S(=O)(=O)c2ccc3c(c2)NC(=O)CS3)CC1` is lower in “hERG current change (%, negative = inhibition) at 10uM” value: 28.4% for the first, 13.3% for the second.

Compared with `COc1cc(/C=N/NC(=O)c2cccs2)ccc1O`, `COc1ccc(Cl)cc1NC(=O)CN(C)C(=O)c1n[nH]c2ccccc12` is lower in “hERG current change (%, negative = inhibition) at 10uM” value: -2.17% for the first, -8.65% for the second.

First: COc1ccc(C2CC(c3ccccc3)=NN2S(=O)(=O)c2ccc(C)cc2)c(OC)c1 (stereo not shown)
Second: CC(=O)c1cc2c(cc1N/C(=N/S(=O)(=O)c1ccc(Br)cc1)c1ccccc1)OCO2
The “hERG current change (%, negative = inhibition) at 10uM” value of the first is lower: 5.4% for the first, 17.9% for the second.

Compared with `COc1ccccc1N1CCN(Cc2cc3c(cc2Br)OCCO3)CC1`, `CCOc1ccccc1N1C(=O)CC(Nc2ccc(N3CCOCC3)cc2)C1=O` (stereo not shown) is higher in “hERG current change (%, negative = inhibition) at 10uM” value: 0.273% for the first, 0.942% for the second.

First: O=C(CSc1ncn[nH]1)Nc1c(F)cc(F)cc1Br
Second: Cc1oncc1C(=O)N1CCCC(CO)(Cc2ccc(F)cc2F)C1 (stereo not shown)
The “hERG current change (%, negative = inhibition) at 10uM” value of the first is higher: 7.92% for the first, -3.66% for the second.

Compared with `COc1ccccc1NC(=O)N(Cc1ccccc1)C1=NCC(C)S1` (stereo not shown), `S=C(Cc1ccccc1)NCCc1ccccc1` is lower in “hERG current change (%, negative = inhibition) at 10uM” value: -3.8% for the first, -25.4% for the second.

First: Cc1cc(CN2CCN(CCC#N)CC2)c(O)c(C2(C)CCCCC2)c1
Second: O=c1cc(CO)oc(CN2CCN(CCO)CC2)c1O
The “hERG current change (%, negative = inhibition) at 10uM” value of the first is higher: 4.69% for the first, -4.45% for the second.

Compared with `CCOc1cc(C(=O)NCc2ccc(-c3nc4ccccc4o3)cc2)cc(OCC)c1OCC`, `CCn1c2ccccc2c2cc(NC(=O)c3ccco3)ccc21` is higher in “hERG current change (%, negative = inhibition) at 10uM” value: -14.8% for the first, -5.72% for the second.

Going from `Cc1cccc(C(=O)Nc2ccc(N3CCN(S(C)(=O)=O)CC3)cc2)c1` to `CC1CCN(S(=O)(=O)c2cccc(C(=O)Nc3nccs3)c2)CC1`, the “hERG current change (%, negative = inhibition) at 10uM” value falls from 18.8% to 0.638%.

First: COc1cccc(CN(C)C(=O)c2[nH]c(C)c(C(C)=O)c2C)c1OC
Second: COc1cccc(CN2CCNC(=O)C2CC(=O)N(C)CCC2CCOCC2)c1OC (stereo not shown)
The “hERG current change (%, negative = inhibition) at 10uM” value of the first is higher: 8.06% for the first, 6.07% for the second.

Compared with `Cc1ccc2c(c1)C1CN(C)CCC1N2C(=O)c1cccc(S(=O)(=O)N(C)C)c1.c1ccccc1` (stereo not shown), `COc1ccc(NC(=O)C2CCCN(S(=O)(=O)c3ccc4c(c3)CC(C)N4C(C)=O)C2)cc1` (stereo not shown) is higher in “hERG current change (%, negative = inhibition) at 10uM” value: -25% for the first, 24.3% for the second.

First: CC1CN(S(=O)(=O)c2ccc(C(=O)Nc3sccc3C(N)=O)cc2)CC(C)O1 (stereo not shown)
Second: O=C(NC1=NCCS1)c1ccc(Cl)c(S(=O)(=O)N2CCc3ccccc32)c1
The “hERG current change (%, negative = inhibition) at 10uM” value of the first is lower: -10.8% for the first, 3.46% for the second.

Compared with `CCOC(=O)c1cc(NC(=O)NCc2ccco2)c(C)nc1C`, `Cc1ccc(N(NC(=O)C(C)(C)O)C(=O)c2ccccc2)cc1C` is higher in “hERG current change (%, negative = inhibition) at 10uM” value: 8.26% for the first, 17.3% for the second.

Compared with `NC(=O)NC(=O)CSc1cccc(C(F)(F)F)c1`, `COc1ccc(NC(=O)/C=C/c2cccc(C(F)(F)F)c2)cn1` is lower in “hERG current change (%, negative = inhibition) at 10uM” value: 9% for the first, 3.06% for the second.

Going from `Cn1nnnc1SCC(=O)N1CCN(S(=O)(=O)c2ccccc2)CC1` to `O=C(c1ccc(CNS(=O)(=O)c2cccc(Cl)c2)cc1)N1CCCC1`, the “hERG current change (%, negative = inhibition) at 10uM” value rises from -3.87% to 3.81%.

Compared with `Cc1ccc(C)c(C(C)NC(=O)C2CC=CCC2C(=O)O)c1` (stereo not shown), `Cc1cccc(NC(=O)c2cc(NC(=O)C3CCCCC3C(=O)O)ccc2N2CCOCC2)c1` (stereo not shown) is lower in “hERG current change (%, negative = inhibition) at 10uM” value: 2.2% for the first, 2.19% for the second.

Compared with `O=C(NCc1ccccc1)C1=C[C@@H](c2ccccc2)C[C@@H](OCCCCO)O1`, `O=[N+]([O-])c1cccc(C(=NCc2ccccc2)NO)c1` is higher in “hERG current change (%, negative = inhibition) at 10uM” value: -36.6% for the first, 15.9% for the second.

Compared with `CCOC(=O)Oc1c(OC)cc(C(=O)O[C@@H]2C[C@@H]3CN4CCc5c([nH]c6cc(OC)ccc56)[C@H]4C[C@@H]3[C@H](C(=O)OC)[C@H]2OC)cc1OC`, `CCOc1cc(C(=S)N2CCOCC2)ccc1OC(=O)c1cc(OC)c(OC)c(OC)c1` is higher in “hERG current change (%, negative = inhibition) at 10uM” value: 7.16% for the first, 13.6% for the second.

First: COc1ccc(C2Nc3cccc4cccc(c34)N2)cc1Br
Second: COc1cccc(OC)c1CN1CCCC(C(=O)c2cccc(Cl)c2)C1 (stereo not shown)
The “hERG current change (%, negative = inhibition) at 10uM” value of the first is higher: 9.97% for the first, -69% for the second.

First: C=C(C)c1sc(-c2ccccc2)nc1C
Second: Cc1ccc(CNc2nc3ccccc3s2)s1
The “hERG current change (%, negative = inhibition) at 10uM” value of the first is higher: -7.49% for the first, -18.2% for the second.

Going from `Cc1ccccc1N1C(=O)/C(=C/c2ccco2)C(=O)NC1=S` to `CC1(C)C(=O)Nc2ccccc2N1C(=O)CN1C(=O)c2ccccc2C1=O`, the “hERG current change (%, negative = inhibition) at 10uM” value falls from 16.5% to -3.12%.

Going from `COc1ccc(CCNc2nc3ccccc3n3nnnc23)cc1OC` to `COc1cccc(NC(=S)N(CCc2c(C)[nH]c3ccccc23)Cc2cccs2)c1`, the “hERG current change (%, negative = inhibition) at 10uM” value rises from 1.05% to 13.5%.

Compared with `O=C(O)c1ccccc1C(=O)c1ccc(Br)s1`, `O=C(O)c1ccc(NS(=O)(=O)/C=C/c2ccccc2)cc1O` is lower in “hERG current change (%, negative = inhibition) at 10uM” value: 24.7% for the first, 5.19% for the second.

Going from `O=C(NC(=S)NC1CCCCCCCCCCC1)c1cccnc1` to `Cc1ccc(C(=O)NC2CCCCNC2=O)cc1` (stereo not shown), the “hERG current change (%, negative = inhibition) at 10uM” value rises from -4.46% to 7.39%.

Compared with `CC(Oc1ccccc1)C(=O)NC1CC(C)(C)NC(C)(C)C1` (stereo not shown), `CCN(CC(=O)NC1CCS(=O)(=O)C1)c1nc(-c2ccccc2)nc2ccccc12` (stereo not shown) is lower in “hERG current change (%, negative = inhibition) at 10uM” value: 6% for the first, -35.6% for the second.

Going from `O=C1C=CC(=O)N1c1cccc(-c2ccccc2)c1` to `CCN(c1ccccc1)c1ncnc2c1cnn2-c1ccccc1`, the “hERG current change (%, negative = inhibition) at 10uM” value falls from 3.16% to -11.2%.

Compared with `CC1CCCCN1CCCNC(=O)c1c(O)nc2ccccn2c1=O` (stereo not shown), `CCCCSCCCNC(=O)Nc1ccc(CC)cc1` is lower in “hERG current change (%, negative = inhibition) at 10uM” value: 15.9% for the first, 2.41% for the second.

Going from `CC(=O)N1CCc2cc(S(=O)(=O)NC(CC(C)C)C(=O)Nc3ccc4c(c3)OCCO4)ccc21` (stereo not shown) to `O=[N+]([O-])c1ccc([N+](=O)[O-])c(Nc2ccc(N3CCOCC3)cc2)c1`, the “hERG current change (%, negative = inhibition) at 10uM” value rises from 3.09% to 36.1%.

Compared with `CC(C)(C)NC(=O)CSc1nc2ccc(Nc3nc(N4CCOCC4)nc(N4CCOCC4)n3)cc2s1`, `COC(=O)c1sc(SC)c(S(=O)(=O)C(C)C)c1N` is lower in “hERG current change (%, negative = inhibition) at 10uM” value: -2.64% for the first, -6.06% for the second.

First: Nc1cc2c([N+](=O)[O-])cccc2o1
Second: Nc1c(Br)cc(Br)cc1CNC1CCC(O)CC1 (stereo not shown)
The “hERG current change (%, negative = inhibition) at 10uM” value of the first is higher: 5.18% for the first, -12.8% for the second.
